The structures appear in SMILES notation. In all, about 45,000 compounds went through this assay and about 65 (0.1%) were called active. Calls follow the shape of the dose curve; as a rule, active = well fitted activation curve with a large enough effect; inconclusive = small, poorly fitted or top-dose-only effect; inactive = no such curve, though single readings can be large or run the other way. The list shows a part of the results.

The assay addresses Galactocerebrosidase (Homo sapiens) (UniProt P54803). Put plainly: A Novel Cell-Based Assay to Identify Small Molecules for B -Galactocerebrosidase. Also: 0% is about no effect; nearly all actives have a fitted effect of over 65% in size. The conditions noted are these: 145M-Twi-hGALC-G270D cells (Twitcher mouse brain line with human GALC G270D), HMU-beta-Gal fluorescence, 48 h; series mostly up to 57.5 µM; activation: at the top concentration. The procedure, abridged: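 Fluorogenic HMU-b-Gal hydrolysis (0.1 mM final, pH 5.2 citrate-phosphate with 1 mg/mL sodium taurocholate; carbonate stop buffer) measures mutant GALC activity after compound treatment of live 145M-Twi Twitcher brain cells stably carrying human GALC-G270D, with wild-type GALC line alongside; activation sought.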
Sequence of UniProt P54803 (P54803 whole entry, looked up): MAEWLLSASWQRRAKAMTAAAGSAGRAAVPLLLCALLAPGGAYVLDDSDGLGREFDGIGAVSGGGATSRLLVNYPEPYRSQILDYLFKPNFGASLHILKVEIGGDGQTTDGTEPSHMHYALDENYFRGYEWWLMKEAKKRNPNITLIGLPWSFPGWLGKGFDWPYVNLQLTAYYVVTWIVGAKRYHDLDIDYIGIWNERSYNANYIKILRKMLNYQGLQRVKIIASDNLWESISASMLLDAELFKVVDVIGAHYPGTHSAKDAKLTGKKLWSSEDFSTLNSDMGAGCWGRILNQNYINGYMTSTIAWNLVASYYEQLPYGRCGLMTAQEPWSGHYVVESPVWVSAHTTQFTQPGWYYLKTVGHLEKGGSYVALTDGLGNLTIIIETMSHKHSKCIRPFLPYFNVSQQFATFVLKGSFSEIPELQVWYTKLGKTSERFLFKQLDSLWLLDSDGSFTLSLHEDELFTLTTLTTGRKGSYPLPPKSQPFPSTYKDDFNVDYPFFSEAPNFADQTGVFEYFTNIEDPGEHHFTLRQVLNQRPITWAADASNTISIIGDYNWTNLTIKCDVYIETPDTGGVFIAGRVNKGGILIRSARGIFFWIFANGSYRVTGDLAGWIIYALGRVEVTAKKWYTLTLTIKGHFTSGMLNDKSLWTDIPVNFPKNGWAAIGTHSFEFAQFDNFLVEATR
On to `CSc1cccc(NC(=O)Cn2ncn3c(cc4ccccc43)c2=O)c1`, for which the “activation” value is inactive: -14%.

Take `COC(=O)c1cc(NC(=O)c2ccc3c(c2)NC(=O)c2ccccc2S3)cc(C(=O)OC)c1`: the “activation” value is inactive: -19.8%. Under `COc1ccc(-c2nc3c(c(SCC(=O)N4CCCCC4)n2)Cc2c(CO)cnc(C)c2O3)cc1` stands inactive: -7.13%; under `O=C(Nc1cccc(F)c1F)C1CCN(c2ncccn2)CC1`, inactive: -17.7%. With `Cn1nnc2c(N3CCN(c4cccc(C(F)(F)F)c4)CC3)ncnc21`, the “activation” value is inactive: -17%.

Take `Fc1ccccc1N1CCN(c2ncc3c(n2)CCN(Cc2cc(Br)cs2)C3)CC1`: the “activation” value was inactive: -17.3%.

In the case of `CCOc1ccccc1NC(=O)C(c1ccccc1)N1Cc2ccccc2C1=O` (stereo unspecified), the “activation” value is inactive: -0.0125%. Consider `COc1ccc(OC)c(CNC(=O)CN2CC(C)Sc3ccccc32)c1` (stereo unspecified), for which the “activation” value was inactive: -32.8%. Turning to `Cc1cccc(N2CCN(C(c3ccccc3)c3nnc(-c4ccccc4Cl)o3)CC2)c1C` (stereo unspecified), the “activation” value was inactive: -14%. Under `COC(=O)c1ccccc1NC(=O)Cn1c(=O)n(-c2cccc(C(F)(F)F)c2)c(=O)c2c(C)c(C)sc21` stands inactive: 2.21%; under `Cc1cccc2sc(N(CCCN(C)C)C(=O)COc3ccccc3)nc12`, inactive: -14.1%. With `Cc1ccc(C)c(N2CCN(C(=O)c3cc(S(=O)(=O)N4CCCCCC4)cn3C)CC2)c1`, the “activation” value was inactive: -5.42%.

Turning to `COCCCNC(=O)c1ccc(Cn2c(SCc3cccc(C)c3)nc3cccnc32)cc1`, the “activation” value was inactive: -13.6%.

For `Cc1ccc(S(=O)(=O)NCC2CCC(C(=O)NCCc3ccc(Cl)cc3)CC2)cc1` (stereo unspecified), the “activation” value is inactive: -11.8%. In the case of `CCOc1ccc(N(CC)S(=O)(=O)N2CCCC(C(=O)NCCc3ccc(OC)cc3)C2)cc1` (stereo unspecified), the “activation” value was inactive: -11.8%. `CCN(CC)S(=O)(=O)c1ccc2oc(C(=O)NCc3ccccc3OC)c(C)c2c1`: the “activation” value is inactive: -13.4%. Next, `CC(=O)CCCCn1c(=O)c2c(ncn2C)n(C)c1=O`: inactive: -9.5%; `Cc1cc(C)c2c(n1)sc1c(=O)n(-c3cc(Cl)ccc3C)nnc12`: inactive: -16.6%. Under `O=C(/C=C\c1ccccc1)NC1CC(=O)N(c2ccccc2)C1` (stereo unspecified) stands inactive: -11.6%. Under `CCCn1c(CCCNC(=O)c2ccccc2OC)nc2ccccc21` stands inactive: -8.54%; under `CCOC(=O)C1CCCN(C(=O)c2nn(-c3ccc(C)cc3)c(=O)c3c2c2ccccc2n3C)C1` (stereo unspecified), inactive: -13.1%. Take `COc1ccccc1CNC(=O)c1cc2c(s1)-c1ccccc1OC2`: the “activation” value is inactive: -6.28%. Next, `CCC(=O)N1c2ccc(S(=O)(=O)CCC(=O)Nc3ccc(Br)c(C)c3)cc2CC1C` (stereo unspecified): inactive: -12.2%. Turning to `CCCCN(C)CCCNC(=O)Cn1ncc2c3ccccc3n(Cc3cc(C)ccc3C)c2c1=O`, the “activation” value is inactive: -26.1%. For `CCN(Cc1ccccc1)C(=O)c1sc2nc3n(c(=O)c2c1C)CCCC3`, the “activation” value is inactive: -16.4%. As for `CCOc1ccc(CNS(=O)(=O)c2ccc(-c3coc(C)n3)cc2)cc1OC`, the “activation” value is inactive: -46.7%.

Turning to `CCN(CC)CCCNC(=O)c1nn(-c2ccc(C)cc2)c(=O)c2c1c1ccccc1n2C`, the “activation” value is inactive: -13.8%.

In the case of `O=C(NCc1cccs1)c1ccc(Cn2c(SCc3ccc(F)cc3)nc3cccnc32)cc1`, the “activation” value was inactive: -2.88%. Next, `COc1cccc(NC(=O)c2cnc(SCC(=O)N3CCOCC3)n(C)c2=O)c1`: inactive: -21.8%. Next, `Cc1ccc(Cl)cc1N1CCN(C(=O)CN2C(=O)CSc3c2c(C)nn3-c2ccccc2)CC1`: inactive: -15.6%; `CCc1ccc2c(c1)-c1ccccc1S(=O)(=O)N2CC(=O)N1CCCCC1`: inactive: -13.9%; `COc1ccc(-c2cn3c(n2)sc2cc(C(=O)NCCc4ccc(OC)cc4OC)ccc23)cc1`: inactive: -9.75%. For `CCOCCCN(Cc1ccco1)C(=O)c1cc2c(=O)[nH]c3ccc(C)cc3c2s1`, the “activation” value is inactive: -23.9%. Next, `COc1ccc(/C=C(\C#N)c2nc3ccccc3n2C)c(OC)c1`: inactive: -16.4%; `O=S(=O)(c1ccccc1)c1nnn2c1nc(NCc1ccccc1)c1sccc12`: inactive: -12%; `COCCNC(=O)Cn1c(=O)n(CCCCCC(=O)Nc2ccccc2)c(=O)c2sccc21`: inactive: -16.2%. Under `COc1ccc(CNC(=O)CCCn2c(=O)c3cccn3c3cccnc32)cc1` stands inactive: -4.61%. Under `CCN(CC)CCCNC(=O)CN1N=C(c2ccc(OC)cc2)CCC1=O` stands inactive: -4.48%; under `CN(C/C=C/c1ccccc1)Cc1cccc2ccccc12`, inactive: 7.9%; under `COc1ccc(C(=O)N2c3ccc(C)cc3C(C)(c3ccccc3)CC2(C)C)cc1` (stereo unspecified), inactive: -42.9%. Consider `COc1cc(Cl)c(C)cc1NC(=O)Cn1ncc2c3ccccc3n(Cc3ccccc3)c2c1=O`, for which the “activation” value is inactive: -9.68%.

As to `CCc1ccc(CNC(=O)c2c(C)oc3ncn(CC(C)C)c(=O)c23)cc1`, the “activation” value is inactive: -5.53%. As to `CCCCNS(=O)(=O)c1ccc2nc(-c3cccnc3)cc(C(=O)NCCOC)c2c1`, the “activation” value was inactive: -9.98%. Under `Cc1ccccc1NC(=O)c1ccc(Cl)c(S(=O)(=O)N2CCCCCC2)c1` stands inactive: -40.3%; under `CCc1ccc(S(=O)(=O)c2c(C(=O)c3ccccc3)cnc3ccc(CC)cc23)cc1`, inactive: -9.26%. Turning to `CCOCCCNC(=O)c1c(NC(=O)Cc2coc3ccc(C)cc23)sc2c1CCC2`, the “activation” value was inactive: -16.4%.

On to `O=S(=O)(c1cccc(F)c1)N1CCC(Oc2ccc(-n3cnnn3)cc2)CC1`, for which the “activation” value was inactive: -6.06%.

On to `CC(C)c1ccc(OCC(O)CN2CCN(c3ccc(F)cc3)CC2)cc1` (stereo unspecified), for which the “activation” value was inactive: -9.25%. Next, `COc1ccccc1CN1CCC(CNC(=O)c2cnn(-c3ccc(Cl)cc3)c2C2CCN(C(=O)OC(C)(C)C)CC2)CC1`: inactive: -18.5%; `O=C1c2[nH]nc(-c3ccccc3O)c2C(c2ccc(F)cc2)N1CCO` (stereo unspecified): inactive: -7.3%; `COc1ccc(OC)c(NC(=O)Cc2c(C(=O)O)n(C)c3ccc(C)cc23)c1`: inactive: -13%.

On to `CCC1CCCCN1C(=O)Cn1c(=O)cc(C(F)(F)F)c2c(C)nn(C)c21` (stereo unspecified), for which the “activation” value is inactive: 2.68%.

`COc1ccc(NC(=O)CSc2nccn2Cc2ccco2)c(OC)c1`: the “activation” value is inactive: -11.9%. Take `Cc1ccc(CN(Cc2ccco2)C(=O)c2ccc(Cl)cc2)o1`: the “activation” value is inactive: 4.36%. Next, `CCc1ccc(-n2c(=O)c3c(C)c(C(=O)N(C)C)sc3n(Cc3ccccc3C#N)c2=O)cc1`: inactive: -8.19%; `CCc1ccccc1NC(=O)CSc1ncc(S(=O)(=O)c2ccc(C(C)C)cc2)c(N)n1`: inactive: -3.72%. Next, `CCc1cccc(C)c1Nc1c(-c2cccc(O)c2)nc2nc(C)cc(C)n12`: inactive: -13.7%.

Consider `CC1=C(C(=O)Nc2ccc(Cl)cc2)C(c2ccc(C(F)(F)F)cc2)n2nnnc2N1` (stereo unspecified), for which the “activation” value was inactive: -16%.

For `CCOC(=O)c1c(C)sc(-c2c(-c3ccc(OC)c(F)c3)[nH]c3[nH]c(=O)[nH]c(=O)c23)c1O`, the “activation” value was inactive: -9.97%.

For the compound `CCOC(=O)c1cc(-c2ccc(OC)cc2)n(CCC(=O)Nc2nc3ccc(OCC)cc3s2)c1C`, the “activation” value is inactive: -13.9%.

As to `COc1ccc(-c2nc(SCC(=O)N3CCCCC3C)n[nH]2)cc1` (stereo unspecified), the “activation” value was inactive: -6.73%.

(Values after PubChem BioAssay AID1159614 (National Center for Advancing Translational Sciences (NCATS), 2016).)
